From the supplement of paper PMC8007513
Counter-ions that a name gives are not always drawn. ± gives the standard error. The campaign covered roughly 1,300 compounds. About 75 (6%) showed an effect of 50% or more. Some of the results follow.

Tested on: Trichoderma virens ATCC 9645
Test: growth yield (OD600) relative to untreated control; higher = less growth inhibition
Settings: compound concentration: 100 uM
Method in brief: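 Spores of Trichoderma virens ATCC 9645, taken from potato dextrose agar plates grown for 7 days, were suspended at 15,000 spores ml^−1 in potato dextrose broth. In 96-well plates, 100 μl aliquots held library compounds at 100 μM final, either alone or together with a biocide at 200 ng ml^−1, and were grown at 30 °C. A BioTek EL800 read OD600 at 40 h and 72 h. Growth values are given relative to the control lacking both agents and are means of duplicate screens.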

Row | Compound | growth yield (40 h) | growth yield (72 h)
1 | C[C@]12CCC(=O)C=C1C=C[C@@H]1[C@@H]2CC[C@@]2(C)[C@H]1CC[C@@]2(O)CCC(=O)O [Canrenoic acid potassium salt] | 92.6 ± 2.7% | 91.2 ± 4.4%
2 | c1ccc2c(c1)Nc1ccccc1S2 [Phenothiazine] | 53.7 ± 6.7% | 57.9 ± 3.4%
3 | CC(=O)O[C@H]1C[C@@H]2CC[C@@H]3[C@H](CC[C@@]4(C)[C@H]3C[C@H]([N+]3(C)CCCCC3)[C@@H]4OC(C)=O)[C@@]2(C)C[C@@H]1[N+]1(C)CCCCC1 [Pancuronium bromide] | 94.2 ± 1.4% | 74.1 ± 2%
4 | C[C@]12CC[C@H]3[C@@H](CCC4=CC(=O)CC[C@@H]43)[C@@H]1CC[C@@H]2O [Nandrolone] | 92.6 ± 2.4% | 98 ± 1.5%
5 | COc1ccc(CN2CCNCC2)c(OC)c1OC [Trimetazidine dihydrochloride] | 105 ± 0.48% | 104.6 ± 0.52%
6 | C[C@H](N)[C@H](O)c1ccc(O)c(O)c1 [Levonordefrin] | 100.9 ± 0.48% | 93.2 ± 1.4%
7 | CC(C)N(CCC(C(N)=O)(c1ccccc1)c1ccccn1)C(C)C (centres undefined) [Disopyramide] | 100 ± 1.3% | 101 ± 1.6%
8 | O=[N+]([O-])O[C@@H]1CO[C@H]2[C@@H]1OC[C@@H]2O [Isosorbide mononitrate] | 98.32 ± 0.79% | 96.3 ± 1.7%
9 | CN[C@@H]1C[C@@H](c2ccc(Cl)c(Cl)c2)c2ccccc21 [Indatraline hydrochloride] | 105 ± 9.2% | 109 ± 8.6%
10 | CN1[C@@H]2CC[C@H]1C[C@@H](OC(=O)[C@H](CO)c1ccccc1)C2 [Hyoscyamine (L)] | 97.8 ± 3.2% | 95.4%
11 | COc1ccc2c(c1)[C@]13CCCC[C@@H]1[C@H](C2)N(C)CC3 [Dextromethorphan hydrobromide monohydrate] | 104 ± 2.4% | 103 ± 2.6%
12 | C[C@]12CC[C@@H](O)C[C@@H]1CC[C@@H]1[C@@H]2CC[C@]2(C)C(=O)CC[C@@H]12 [Androsterone] | 79.9 ± 2.1% | 93.86 ± 0.32%
13 | CNCC(O)c1ccc(O)cc1 (racemic) [(+,-)-Synephrine] | 105 ± 4.3% | 100 ± 2.3%
14 | C1CCc2nnnn2CC1 [Pentylenetetrazole] | 105 ± 3.6% | 107 ± 4.5%
15 | CC(Cc1ccc(O)cc1)NCC(O)c1cc(O)cc(O)c1 (centres undefined) [Fenoterol hydrobromide] | 96.42 ± 0.16% | 96 ± 1.8%
16 | C=CC[C@]1(O)CC[C@H]2[C@@H]3CCC4=CC(=O)CCC4=C3C=C[C@@]21C [Altrenogest] | 97.7 ± 6.2% | 90.9 ± 3.5%
17 | CC(C)CC(N(C)C)C1(c2ccc(Cl)cc2)CCC1 (centres undefined) [Sibutramine hydrochloride] | 99.4 ± 3.2% | 103 ± 5.5%
18 | C#C[C@]1(O)CC[C@H]2[C@@H]3CCC4=CC(=O)CC[C@]4(C)[C@H]3CC[C@@]21C [Ethisterone] | 98.5 ± 1.3% | 101 ± 2.5%
19 | CC(C)[N+](C)(CCC(C(N)=O)(c1ccccc1)c1ccccc1)C(C)C [Isopropamide iodide] | 103 ± 4.3% | 97.5 ± 2.7%

Row | Compound | growth yield (40 h) | growth yield (72 h)
20 | O=C([O-])c1ccccc1-c1c2cc(Br)c(=O)cc-2oc2[c]([Hg+])c([O-])c(Br)cc12.[Na+].[Na+].[OH-] [Merbromin] | 2.54 ± 0.95% | 2.2 ± 0.94%
21 | O=c1[nH]c2ccccc2n1CCCN1CCC(n2c(=O)[nH]c3cc(Cl)ccc32)CC1 [Domperidone] | 107 ± 1.8% | 108.9 ± 0.63%
22 | S=C(NC1CCCCC1)N1CCC(c2cnc[nH]2)CC1 [Thioperamide maleate] | 95.9% | 95.02 ± 0.84%
23 | C[C@]12CCC(=O)C=C1CC[C@@H]1[C@@H]2C(=O)C[C@]2(C)C(=O)CC[C@@H]12 [Adrenosterone] | 98.32 ± 0.48% | 95.4 ± 1.5%
24 | CC[C@H](C)[C@H]1O[C@]2(C=C[C@@H]1C)C[C@@H]1C[C@@H](C/C=C(\C)[C@@H](O[C@H]3C[C@H](OC)[C@@H](O[C@H]4C[C@H](OC)[C@@H](O)[C@H](C)O4)[C@H](C)O3)[C@@H](C)/C=C/C=C3\CO[C@@H]4[C@H](O)C(C)=C[C@@H](C(=O)O1)[C@]34O)O2.CO[C@H]1C[C@H](O[C@H]2[C@H](C)O[C@@H](O[C@@H]3/C(C)=C/C[C@@H]4C[C@@H](C[C@]5(C=C[C@H](C)[C@@H](C(C)C)O5)O4)OC(=O)[C@@H]4C=C(C)[C@@H](O)[C@H]5OC/C(=C\C=C\[C@@H]3C)[C@]54O)C[C@@H]2OC)O[C@@H](C)[C@@H]1O [Avermectin B1] | 107 ± 5.6% | 105 ± 2.3%
25 | C[N+]1(C)CCOC(O)(c2ccc(-c3ccc(C4(O)C[N+](C)(C)CCO4)cc3)cc2)C1 (centres undefined) [Hemicholinium bromide] | 98.32 ± 0.48% | 101 ± 0.1%
26 | CC[C@@H](C(N)=O)N1CCCC1=O [Levetiracetam] | 101 ± 4.1% | 100 ± 3.1%
27 | COc1ccc(C(=O)N2CCCC2=O)cc1 [Aniracetam] | 105 ± 5.4% | 103 ± 5%
28 | CCN[C@@H](C)Cc1cccc(C(F)(F)F)c1 [Dexfenfluramine hydrochloride] | 102 ± 3.6% | 102 ± 4.3%
29 | CC[C@@]1(O)C(=O)OCc2c1cc1n(c2=O)Cc2cc3ccccc3nc2-1 [Camptothecine (S,+)] | 99.1 ± 3.8% | 98.6 ± 2.9%
30 | CCC(=O)O[C@@](Cc1ccccc1)(c1ccccc1)[C@@H](C)CN(C)C [Levopropoxyphene napsylate] | 106 ± 2.9% | 103 ± 3.4%
31 | C[N+]1(C)[C@@H]2CC[C@H]1C[C@@H](OC(=O)C(CO)c1ccccc1)C2 (some centres undefined) [Methylatropine nitrate] | 102 ± 3.2% | 97.4 ± 2%
32 | CN1C[C@H](C(=O)N[C@]2(C)O[C@@]3(O)[C@@H]4CCCN4C(=O)[C@H](Cc4ccccc4)N3C2=O)C[C@@H]2c3cccc4[nH]cc(c34)C[C@H]21 [Dihydroergotamine tartrate] | 111% | 108%
33 | C[N+](C)(C)CCCCCCCCCC[N+](C)(C)C [Decamethonium bromide] | 111 ± 7.9% | 102 ± 6.5%
34 | CC(=O)OC1CN2CCC1CC2 (centres undefined) [Aceclidine Hydrochloride] | 97.2 ± 2.9% | 101 ± 3.5%
35 | CC(CCc1ccccc1)NC(C)C(O)c1ccc(O)cc1 (centres undefined) [Nylidrin] | 100 ± 2.1% | 99.2 ± 2.9%
36 | COc1cccc(C2(O)CCCCC2CN(C)C)c1 (centres undefined) [Tramadol hydrochloride] | 101 ± 1.3% | 99.8 ± 2.1%
37 | CCCN1C[C@H](CSC)C[C@@H]2c3cccc4[nH]cc(c34)C[C@H]21 [Pergolide mesylate] | 94.5 ± 1.8% | 98.5 ± 1.4%
